Test results: PubChem BioAssay (NCI)
Where “and” joins values, the source holds several entries; their conditions need not be identical. Equal values may be shown once.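 Grown in 96-well plates, cells were treated for 48 hours with each compound at five concentrations. Insufficient inhibition: endpoint recorded as highest concentration tested. GI50 is the concentration that inhibits growth by half. TGI: concentration producing complete growth inhibition.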 Square brackets hold non-standard residues; d marks the D form. Peptide text beside a SMILES is read from it. * marks the point of attachment. ξ: configuration not given here. NMeF = CN[CH](Cc1ccccc1)C(=O)O; ξNMe2Val = CC(C)C(C(=O)*)N(C)C; NMeV = CN[CH](C(=O)O)C(C)C; ξNMeV = CNC(C(=O)O)C(C)C; Boc = CC(C)(C)OC(=O)*; OBn = c1ccc(CO*)cc1; OtBu = CC(C)(C)O*

Test system: NCI-H322M lung
Experiment: inhibition of tumour cell growth, NCI panel, 48 h

| SMILES | TGI | GI50 |
| --- | --- | --- |
| CN(C)CCC[N+]1=Nc2cccc3cccc(c23)N1 | > 100 µM | – |
| NS(=O)(=O)c1ccc(N=Nc2c[nH]c(=O)c(O)c2)cc1 | > 100 µM | – |
| CC1=C2C=CC(=O)C[C@@]2(C)CCC1 | > 100 µM | – |
| C(=N\NC1=NCCN1)/c1ccc2ccccc2c1 | 31.9 µM | – |
| CCS(=O)(=O)c1ccc(OC)c(Nc2ncc(-c3cccc(F)c3)o2)c1 | > 25 µM | > 25 µM |
| N#CC(/C(CCCC(=O)Nc1cccc([N+](=O)[O-])c1)=N\NC(=O)c1c(O)ccc2ccccc12)c1nc2ccccc2s1 (configuration not stated) | > 100 µM | – |
| Cc1c(C(N)=O)sc2nc(C)n(/N=c3\scc(-c4ccccc4)n3Cc3ccccc3)c(=O)c12 | > 100 µM | 3.71 µM |
| COc1cccc(CCNc2c(C#N)c3n(c4ccccc4[n+]3C)c3ncccc23)c1 | 26.7 µM | – |
| COC(=O)c1c(O)ccc2c1c1c(n2Cc2cccc(C)c2)C(=O)c2ccccc2C1 | > 75 µM | – |
| COc1ccc(NC(=O)C(=O)Cc2ccc([N+](=O)[O-])c([N+](=O)[O-])c2CC(=O)C(=O)Nc2ccc(OC)cc2OC)c(OC)c1 | > 100 µM | – |
| N#COc1ccc(Oc2ccc(OC#N)cc2)cc1 | > 100 µM | – |
| CCNC(=S)NNC(=O)c1ccccc1Nc1ccccc1C(=O)NNC(=S)NCC | > 100 µM | – |
| CCOS(=O)(=O)c1ccc(-c2c3nc(c(-c4ccc(S(=O)(=O)OCC)cc4)c4ccc([nH]4)c(-c4ccc(S(=O)(=O)OCC)cc4)c4nc(c(-c5ccc(S(=O)(=O)OCC)cc5)c5ccc2[nH]5)C=C4)C=C3)cc1 | > 31.6 µM | – |
| CCN(CC)CCC1CCCCN1CC(=O)N1c2cc(Cl)ccc2NC(=O)CC1C (configuration not stated) | > 100 µM | – |
| N#CC1=C(N)N(/N=C/c2ccco2)C(c2ccco2)C1(C#N)C#N (configuration not stated) | 33.4 µM | – |
| O=C1NC(=NCCc2ccc(Br)cc2)S/C1=C\c1ccc2ncccc2c1 | > 25 µM | > 25 µM |
| CC(=O)c1c(C)c2cnc(Nc3ccc(N4CCNCC4)cn3)nc2n(C2CCCC2)c1=O | 21.4 µM | 3.53 µM |
| NC(=S)N1N=C2c3ccccc3CCC[C@H]2[C@@H]1c1ccccc1 | 60.6 µM | – |
| CC#CCCCC1(C)CCNC1=S (configuration not stated) | > 10 µM | – |
| O=c1[nH]cnc2c1cnn2Cc1cnnn1COCCO | > 100 µM | – |
| NC1=Nc2ccccc2Sc2cccc(F)c21 | > 100 µM | – |
| O=c1c2c3c(sc2nc2n1NC=NN2)CCCC3 | > 100 µM | – |
| CC(C)C(C(=O)N(C)[C@H](C(=O)N1CCC[C@H]1C(=O)N(C)[C@@H](Cc1ccccc1)C(=O)OCc1ccccc1)C(C)C)N(C)C(=O)[C@@H](NC(=O)OC(C)(C)C)C(C)C (some centres not stated) (Boc-V[ξNMeV][NMeV]P[NMeF]-OBn) | > 31.6 µM | – |
| CC(=O)OCC1OC(n2c(=S)n(-c3ccccc3)c(=O)c3cc(Br)ccc32)C(OC(C)=O)C1OC(C)=O (configuration not stated) | > 100 µM | – |

| SMILES | TGI | GI50 |
| --- | --- | --- |
| CN1C(=O)C23CCCC2CC1(c1ccccc1)S3 (configuration not stated) | > 100 µM | – |
| Cc1cc(N2CCOCC2)nc(NCc2cc(Nc3ccnc4cc(Cl)ccc34)ccc2F)n1 | 3.32 µM | 1.65 µM |
| O=c1[nH]c2ccc(CC(=S)N3CCOCC3)cc2o1 | > 100 µM | – |
| COC(=O)CC1=C(C)/C(=C/c2[nH]c(-c3ccc[nH]3)cc2OC)N=C1C | 13 µM | 0.757 µM |
| C=CCSC(C)=O | > 100 µM | – |
| CCC(c1ccccc1)c1cc(C(C)(C)C)cc(C(C)(C)C)c1O (configuration not stated) | 31.7 µM | – |
| CSc1ccc(C(=O)/C=C/c2ccc(Cl)cc2Cl)cc1 | > 100 µM | > 100 µM |
| COc1ccc(/C=C/c2ccnc3ccccc23)cc1OC | > 100 µM | – |
| COc1ccc(-c2oc3cc(O)c(OC)c(O)c3c(=O)c2O)cc1 | > 100 µM | – |
| C=C(C)C(=O)Nc1ccc(-c2c(-c3ccc(Oc4nccc(C)n4)c(F)c3)c3c(N)ncnc3n2C)cc1 | 16.1 µM | 3.5 µM |
| O=c1[nH]c(=O)n(C2CC(O)C(CO)O2)cc1Br (configuration not stated) | > 100 µM | – |
| COc1ccc2c(c1)/c(=C/C#N)c1c3ccccc3[n+](C)n21 | 39.4 µM | – |
| O=C1CC(c2ccccc2)n2c(nc3ccccc32)N1 (configuration not stated) | > 100 µM | – |
| CSc1nc2c(c(=O)n1C)C(c1ccccc1)C1=C(N2)/C(=C/c2ccccc2)CCC1 (configuration not stated) | > 100 µM | > 100 µM |
| O=C(O)c1nn(-c2ccccc2)nc1-c1nn(-c2ccccc2)nc1C(=O)O | > 100 µM | – |
| COC(=O)c1ccccc1C1CN=NC12Cc1ccc3c(c1C2=O)CCC3 (configuration not stated) | > 100 µM | – |
| CC(=O)[C@@]1(c2ccccc2)CC2(CCN(C)CC2)O[C@H]1C | > 100 µM | – |
| CC(NNC(=O)c1ccncc1)c1cccc(C(F)(F)F)c1 (configuration not stated) | > 100 µM | – |
| COc1ccc2nc3ccccc3c(NCCCCN(CCCl)CCCl)c2c1 | 4.5 µM | – |
| O=C1C=CC(=O)c2c1nc(CBr)[nH]c2=O | > 100 µM | – |
| COc1cc2c[n+](C)c3c4cc(OC)c(OCc5ccccc5)cc4c(OCc4ccccc4)cc3c2cc1OC | 75.9 µM | – |
| CC1CN(CCO)CCN1c1ccccc1 (configuration not stated) | > 100 µM | – |
| C(=C/c1nnnn1-c1ccccc1)/Nc1ccccc1 | > 100 µM | – |
| CN(C)CC1CCC/C(=C\c2ccc(OC(=O)/C=C/c3ccc(Cl)cc3)cc2)C1=O (configuration not stated) | 50 µM | – |

| SMILES | TGI | GI50 |
| --- | --- | --- |
| CCCN(CCC)C(=O)c1c(N2CCN(C)CC2)c2cccnc2n2c(C)cnc12 | > 100 µM | – |
| Brc1ccc(-c2cc3c(cc2C2SCCS2)OCO3)cc1 | > 100 µM | – |
| CCOC(=O)C1C(=O)CC(=O)C2CCCCC21 (configuration not stated) | > 100 µM | – |
| COc1ccc2c(c1)/C(=N/OC(C)=O)c1c-2c(OC)nc2ccccc12 | > 100 µM | 68.8 µM |
| CC(C)C(C(=O)N(C)C(Cc1ccccc1)C(=O)N(C)C(C(=O)N(C)C(C(=O)N1CCCC1C(=O)OC(C)(C)C)C(C)C)C(C)C)N(C)C (configuration not stated) (ξNMe2Val-[NMeF][NMeV][NMeV]P-OtBu; configuration not given here) | > 100 µM | – |
| CC#COS(=O)(=O)c1ccc(C)cc1 | > 100 µM | – |
| Cc1c(-c2ccccn2)ccc2ccccc12 | > 100 µM | – |
| CCCCCCCCCCCCOC1C(COCCN2CCCCC2)OC2OC(C)(C)OC21 (configuration not stated) | 19.1 µM | – |
| Cc1cc(N(CCNc2ccnc3cc(Cl)ccc23)Cc2ccc3c(c2)OCO3)nc(N2CCCC2)n1 | 7.86 µM | 2.04 µM |
| CC(=O)Nc1ccc(/C=c2\sc3nnc(-c4cccnc4)n3c2=O)cc1 | > 100 µM | – |
| COC1/C(=C\C(C)=O)c2ccccc2N1C(C)=O (configuration not stated) | > 100 µM | – |
| CCOCCOCCOCCOCCOCCOCCOCCOCCOCCO (tested in a mixture with another compound) | 18.7 µM | 4.1 µM |
| COC(=O)c1cc2cc(/C=C3/SC(=S)N(N(C(C)=O)C(C)=O)C3=O)oc2n1Cc1ccccc1 | 23.2 µM | 3.12 µM |
| O=S(=O)(/N=C(\NO)Nc1ccc(Cl)cc1)c1cc2ccccc2s1 | 30.7 µM | – |
| COc1cnccc1Nc1nc(-c2nn(Cc3c(F)cc(OCCO)cc3F)c3ccccc23)ncc1OC | 24.3 µM | 2.96 µM |
| COC(=O)c1cc(-c2ccc(S(C)(=O)=O)cc2)[nH]c1N/N=C/c1c(Cl)cccc1Cl | > 90.8 µM | 1.17 µM |
| CCO/C(O)=c1/s/c(=C(\C#N)c2nc3ccccc3[nH]2)n(-c2ccccc2)c1=N | > 100 µM | – |
| C[C@]12CCC(=O)C[C@@H]1CC[C@@H]1[C@@H]2CC[C@]2(C)[C@@H](OC(=O)N(CCCl)N=O)CC[C@@H]12 | 30.9 µM | 8.32 µM |
| COc1ccc(Nc2nc(N)c(C(=O)c3ccc(Cl)cc3)s2)cc1 | 31.1 µM | – |
| COc1ccc([I+]c2ccc(OC)cc2)cc1 | > 100 µM | 48.2 µM |
| COc1ccc(C(O)c2ccccn2)cc1 (configuration not stated) | > 100 µM | – |
| CC/C=C\C[C@H]1C/C=C2/C(=O)C(Cl)=C[C@@H]2C/C=C\CCCC(=O)O1 | 2.87 µM | 0.683 µM |
| COc1ccc([C@H]2CC3C(=O)N(c4ccc(OC)cc4)C(=O)C3c3[nH]c4ccccc4c32)cc1 (some centres not stated) | > 100 µM | – |
| N#Cc1ccc(C2SCc3nc4ccccc4n32)cc1 (configuration not stated) | > 100 µM | – |

| SMILES | TGI | GI50 |
| --- | --- | --- |
| CCOC(=O)c1nc2cc(Cl)ccc2[nH]c1=O | > 100 µM | – |
| N=C(CC(=O)Nc1ccccn1)c1ccccc1 | > 100 µM | – |
| CN1CCN(c2ccc(NC3=CC(=O)c4ncncc4C3=O)cc2)CC1 | 2.81 µM | 1.48 µM |
| COc1cc(C(=O)O[C@H](C(=O)NCCCCNC(=O)[C@@H](OC(=O)c2cc(OC)cc3c(C)cccc23)[C@]2(C)CO2)[C@]2(C)CO2)c2cccc(C)c2c1 | 1.44 µM | 0.458 µM |
| Cc1nc2ccc(NC3OCC(O)C(O)C3O)cc2c(=O)n1-c1ccccc1 (configuration not stated) | > 100 µM | – |
| Clc1ccc(-c2nc(NCc3ccco3)c3ccccc3n2)c(Cl)c1 | 35.1 µM | 12.2 µM |
| Cc1ccc(Nc2nc(-c3ccc(-c4ccc([N+](=O)[O-])cc4)o3)cs2)cc1 | > 100 µM | – |
| COc1cc(S(=O)(=O)Nc2ccc(-c3csc(N4C(=O)CSC4c4ccccc4O)n3)cc2)ccc1Cl (configuration not stated) | > 100 µM | – |
| COc1ccc2c3/c(=C\c4ccc(N(C)C)cc4)c4ccccc4n3[n+](C)c2c1 | 0.625 µM | 0.219 µM |
| Cc1ccc(S(=O)(=O)NNS(C)(=O)=O)cc1 | > 100 µM | – |
| O=C1C(=C([O-])c2ccccc2)C(=O)c2ccccc21.O=C1C(=C([O-])c2ccccc2)C(=O)c2ccccc21.[Ni+2] | > 100 µM | 58 µM |
| O=C1C(Cl)=C(NCCCN(CCCNC2=C(Cl)C(=O)c3ccccc3C2=O)C2=C(Cl)C(=O)c3ccccc3C2=O)C(=O)c2ccccc21 | 11.5 µM | 2.44 µM |
| Cc1cc(C)c2c(n1)S(=O)(=O)N(CCCN1CCN(c3cccc(Cl)c3)CC1)/C(=C(\O)c1ccc(Br)cc1)C2=O | > 100 µM | – |
| CNC(=O)CNC(=O)N(C[C@@H]1CCCN1C(=O)[C@H](CC(C)C)NC(=O)OC(C)(C)C)C(C)C | > 100 µM | – |
| O=C(C(=CN1CCN(C(=O)c2ccco2)C1=S)C(=O)c1ccccc1)c1ccccc1 | 13.7 µM | 2.23 µM |
| CC(=O)[CH-]C(=O)c1ccccc1.CC(=O)[CH-]C(=O)c1ccccc1.CC(=O)[CH-]C(=O)c1ccccc1.[Ga+3] | 64 µM | 24.8 µM |
| CNC(=O)c1cc(Oc2ccc(NC(=O)Nc3cc(C(C)(C)C)nn3-c3ccc4ncccc4c3)c(F)c2)ccn1 | 8.59 µM and 8.14 µM | 2.61 µM and 2.66 µM |
| Cc1ccc(S(=O)(=O)C2CC2(Cl)Cl)cc1 (configuration not stated) | > 100 µM | – |
| CC(=O)OCC1OC(N=[N+]=[N-])C(OC(C)=O)C(OC(C)=O)C1OC1OC(COC(C)=O)C(OC(C)=O)C(OC(C)=O)C1OC(C)=O (configuration not stated) | > 100 µM | – |
| CCC(Nc1ncnc2nc[nH]c12)C(=O)O (configuration not stated) | > 100 µM | – |
| CC12CCc3ccccc3C1=NNC(=O)C2 (configuration not stated) | > 100 µM | – |
| CCN(CC)c1ccc(C2N3CCCCC3[C@@H]3c4[nH]c5ccccc5c4CCN23)cc1 (some centres not stated) | > 100 µM | – |
| CCOC(=O)N1CCC2(CC1)C[C@@](C(C)=O)(c1ccccc1)C(C)O2 (some centres not stated) | > 100 µM | – |
